In all, about 110,000 compounds were measured (“z-score”: median about -0.1, highest 2% from about 2 on). The list shows a part of the results. Activity calls are given as the source filed them.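 Rule for the calls: active = z-score in the third read window above 3 or below -3; inactive = the rest.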
Each molecule was assayed against Metabotropic glutamate receptor 8 (Rattus norvegicus) (UniProt P70579) (assay: mGluR8 Gi/Go-coupled signaling modulation – cell-based, rat, thallium flux, HTS, primary screen (AID 488969)). Details: HEK293 rat mGluR8, GIRK (G protein-gated inwardly rectifying potassium channel) thallium flux, FluoZin2; at 10 µM; stronger effect = higher value; submaximal glutamate (EC20) added with thallium.
Chain of UniProt P70579 (P70579 whole entry, looked up): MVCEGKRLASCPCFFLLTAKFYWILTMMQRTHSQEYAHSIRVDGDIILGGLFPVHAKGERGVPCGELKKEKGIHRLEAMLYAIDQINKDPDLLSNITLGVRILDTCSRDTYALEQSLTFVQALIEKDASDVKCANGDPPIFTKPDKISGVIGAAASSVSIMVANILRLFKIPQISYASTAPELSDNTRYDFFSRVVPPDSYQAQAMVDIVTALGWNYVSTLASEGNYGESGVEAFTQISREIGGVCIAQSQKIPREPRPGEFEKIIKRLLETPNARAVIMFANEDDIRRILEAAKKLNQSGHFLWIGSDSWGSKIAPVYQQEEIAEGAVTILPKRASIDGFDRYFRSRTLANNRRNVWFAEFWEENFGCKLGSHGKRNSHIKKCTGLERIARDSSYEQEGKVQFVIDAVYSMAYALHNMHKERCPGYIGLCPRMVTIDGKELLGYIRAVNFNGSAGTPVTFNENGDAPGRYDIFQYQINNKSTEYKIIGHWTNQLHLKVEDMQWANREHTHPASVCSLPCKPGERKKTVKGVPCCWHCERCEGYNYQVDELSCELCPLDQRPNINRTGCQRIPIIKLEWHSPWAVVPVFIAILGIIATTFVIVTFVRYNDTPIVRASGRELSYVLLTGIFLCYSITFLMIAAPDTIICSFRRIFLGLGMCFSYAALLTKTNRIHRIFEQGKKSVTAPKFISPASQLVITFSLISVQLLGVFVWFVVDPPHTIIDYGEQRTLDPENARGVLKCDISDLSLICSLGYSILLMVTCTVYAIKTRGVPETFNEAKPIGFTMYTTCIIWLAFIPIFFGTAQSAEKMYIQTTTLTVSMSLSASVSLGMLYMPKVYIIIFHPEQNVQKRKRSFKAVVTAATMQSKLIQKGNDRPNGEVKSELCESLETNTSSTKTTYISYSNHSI
O=C(C1CC1)N1CCc2cc(Br)cc(S(=O)(=O)N3CCOCC3)c21 showed a z-score of 0.67. In the case of Cc1nnc(NC(=O)CSc2nnc(CNC(=O)c3ccccc3)n2-c2ccccc2)s1, the z-score was -0.585. Work on CC1C(=O)CCN(C(C)(C)C)C1C (stereo not given) yielded a z-score of 0.2. CCN(CC(=O)Nc1ccc(NC(C)=O)cc1)c1ccc(C(F)(F)F)cn1 was tested, and the z-score was -0.202. Work on COc1cccc(C(=O)N2CCCC(c3nc(-c4cccs4)no3)C2)c1 (stereo not given) yielded a z-score of -0.0488. O=C(c1ccccc1)c1ccc2nc(-c3ccc(NC(=O)c4ccccc4Br)cc3)[nH]c2c1 showed a z-score of -0.191. Molecule OCCNc1nc(SCc2ccccc2)nc2sc3c(c12)CCC3 has a z-score of 1.36. In the case of COc1ccccc1-c1cc(C(F)(F)F)nc(S(C)(=O)=O)n1, the z-score was 0.243. Work on O=C(Nc1ccc(Cl)cc1)Nc1ccc(N2CCOCC2)cc1 yielded a z-score of -0.0978. Molecule CCN1CCN(CC(=O)n2c3c(c4ccccc42)CC(C)CC3)CC1 (stereo not given) has a z-score of 0.702. COc1cc(C2C(C(=O)c3ccc(C)o3)=C(O)C(=O)N2Cc2cccnc2)ccc1O (stereo not given) showed a z-score of -0.0623. For O=S(=O)(Nc1nc2ccccc2s1)c1ccc(Br)s1, the z-score was -0.0496. COc1ccc(-c2[nH]ncc2-c2csc(C)n2)c(O)c1 showed a z-score of -0.141. For COc1cccc(OCCCOc2ccc([N+](=O)[O-])cc2Cl)c1, the z-score was -0.251. Work on COc1cccc(/C=N/NC(=O)C(=O)Nc2ccccc2OC(F)(F)C(F)F)c1O yielded a z-score of -0.301. CC(=O)Oc1c2occc2cc2ccc(=O)oc12 showed a z-score of -0.537. Work on CCCS(=O)(=O)N1CCC(C(=O)NCCCOCC)CC1 yielded a z-score of 0.176. For Cc1ccc(-c2nnc(CSc3nnc(COc4ccccc4)n3-c3ccc(C)cc3)o2)cc1, the z-score was -0.725. In the case of O=C(c1ccc2c(c1)OCO2)N1CCCC(c2ccccc2)C1 (stereo not given), the z-score was 0.197. In the case of [O-][n+]1onc2c3ccnnc3ccc21, the z-score was 0.333. Molecule CN(/C(=N/S(=O)(=O)c1cccs1)c1ccccc1)c1ccccc1 has a z-score of -0.367. With Cc1nn(-c2ccccc2)c(C)c1C(=O)OCC(=O)NC(=O)NC1CCCC1 the z-score was -0.63. For CC1CCN(S(=O)(=O)c2ccc(NC(=O)Cc3ccccc3)cc2)CC1, the z-score was -0.0151. With O=C1c2cccc3cccc(c23)N1Cc1ccc(F)cc1 the z-score was -0.356. Cc1cc(NC(=O)c2nn(C)c(C)c2[N+](=O)[O-])no1 gave a z-score of -0.236. Work on Cc1ccc(-c2nn(Cc3ccccc3)cc2/C=C/C(=O)O)cc1C yielded a z-score of -0.207. Work on CCC(=O)Nc1nonc1-c1nc2ccccc2n1Cc1ccccc1 yielded a z-score of -0.0236. For COc1cc(NC(=O)C(F)(F)F)cc(OC)c1, the z-score was 0.0614. Cc1occc1C(=O)NCc1ccccc1 was tested, and the z-score was 0.0313. CCOC(=O)CSc1nc2cc(C(=O)NCc3ccco3)ccc2c(=O)n1C1CCCCC1 was tested, and the z-score was 0.724. CCOCCCn1c(=N)c(C(N)=S)cc2c(=O)n3cccc(C)c3nc21 was tested, and the z-score was 2. CSc1nc2c(c(=O)[nH]1)C(c1cccs1)C1=C(CCCC1=O)N2 (stereo not given) gave a z-score of -0.461. In the case of CCOC(=O)c1cc(C(C)(C)C)oc1CNC(=O)c1c(C)oc2c1CCCC2, the z-score was -0.0858. In the case of CCCS(=O)(=O)N1CCc2cc(OC)c(OC)cc2C1, the z-score was 0.121. In the case of CS(=O)(=O)c1nc(-c2ccc(Br)cc2)cc(-c2ccccc2)c1C#N, the z-score was -0.135. In the case of CCOC(=O)c1cc(CC)sc1NC(=O)C1CC(=O)NN1Cc1ccccc1 (stereo not given), the z-score was -0.128. COc1ccc(C(=O)/C=C2\NCC3c4ccccc4CCN3C2=O)cc1 (stereo not given) was tested, and the z-score was 0.095. Work on COc1ccc(N2CCC(CNC(=O)Nc3cccc(OC)c3)C2)cc1 (stereo not given) yielded a z-score of -0.265. Molecule COc1ccc(C(=O)/C=C/Nc2ccc(NC(C)=O)cc2)cc1OC has a z-score of -0.098. Cc1cccc(-c2oc(C)c(C)[n+]2[O-])c1 showed a z-score of -0.028. For Cc1cc(C)c(C)c(OCc2nc(-c3cccnc3)no2)c1, the z-score was 0.00652. O=C(CCNS(=O)(=O)c1cccs1)N1CCc2ccccc2C1 showed a z-score of 1.18. In the case of N/C(Cc1ccc([N+](=O)[O-])cc1)=N\OC(=O)c1ccccc1Br, the z-score was 0.116. For CCCC1=NN2C(=N)/C(=C\c3cc(C)n(-c4cc(C)cc(C)c4)c3C)C(=O)N=C2S1, the z-score was 1.45. COc1cccc(-n2c(SCC(=O)OC(C)C)nnc2-c2cccnc2)c1 showed a z-score of -0.453. In the case of Cc1sc(-n2c(C)cc(/C=C3\SC(=S)NC3=O)c2C)c(C#N)c1C, the z-score was 2.26. Molecule COC1=C(Nc2ccc(O)cc2)C(=O)c2ccccc2C1=O has a z-score of -0.218. Molecule CC(C)C(OC(=O)c1ccco1)C(=O)NC1CCCCC1 (stereo not given) has a z-score of -0.259. CCCCn1nnc(NC(=O)c2sc3cc(Cl)ccc3c2Cl)n1 gave a z-score of -0.463. Molecule Cc1ccc(N2C(=O)CC(NNC(=O)c3cccc(S(=O)(=O)N4CCCC4)c3)C2=O)cc1 (stereo not given) has a z-score of -0.167. With CC1CCC/C(=N\NC(=O)Nc2ccccc2)C1 (stereo not given) the z-score was -0.338. In the case of CCOC(=O)c1ccccc1NC(=O)CSc1nc2c(c(=O)n(C)c(=O)n2C)n1C, the z-score was -0.0106. Work on CCc1nc2c(C#N)c(-c3ccc(Cl)cc3)ccn2n1 yielded a z-score of -0.604. With O=C(NCc1ccccn1)C1C2C=CC(C2)C1C(=O)Nc1ccc(F)cc1 (stereo not given) the z-score was 0.216. Work on CN1C(=O)C2(N=c3ccccc3=N2)c2ccccc21 yielded a z-score of -0.345. In the case of CCOc1ccc(C(CCc2ccccc2)NC(=O)c2ccccc2)cc1OCC (stereo not given), the z-score was -0.461. Work on CCC(Sc1nc(C)cc(=O)[nH]1)C(=O)Nc1ccc(Cl)cn1 (stereo not given) yielded a z-score of -0.264. CCCS(=O)(=O)N1CCN(C(=O)c2ccco2)CC1 was tested, and the z-score was -0.289. CCCCC(=O)Nc1cccc(NC(=O)CC)c1 gave a z-score of 0.0913. CCN(CC)S(=O)(=O)c1cccc(C(=O)N2CCCCC2)c1 gave a z-score of -0.135. Work on Cc1ccc2c(c1)C(O)(c1c(C)[nH]c3ccccc13)C(=O)N2 (stereo not given) yielded a z-score of 1.26. CCc1ccc(N2C(=O)CN(Cc3cc(OC)c(OC)c(OC)c3)C2=S)cc1 showed a z-score of -0.483. In the case of COC(=O)c1cn(C(=O)OC)c2ccccc12, the z-score was 0.484. Molecule CC(CC(=O)Nc1cc([N+](=O)[O-])ccc1Cl)c1ccccc1 (stereo not given) has a z-score of 1.42. O=c1cc(-c2ccccc2)[nH]c2[nH]n(-c3ccccc3)c(=O)c12 showed a z-score of -0.88. With CCOC(=O)c1cnc2ccc(OCC)cc2c1N1CCN(C)CC1 the z-score was -0.217. Molecule COc1cccc(C(=O)/C=C/Nc2ccc(S(=O)(=O)Nc3ncccn3)cc2)c1 has a z-score of 0.149. Molecule CC(=O)Nc1nc2n(n1)C(c1ccccc1)C=C(c1ccccc1)N2 (stereo not given) has a z-score of 0.0737. O=C(COC(=O)c1cccs1)NCc1ccccc1 showed a z-score of 0.109. With Cc1cccc2cc(CN(CCN3CCOCC3)C(=O)NCc3ccccc3)c(=O)[nH]c12 the z-score was 0.0153. In the case of COC(=O)c1ccc(NC(=O)C2CCCN2S(=O)(=O)c2ccc(OC)cc2)cc1 (stereo not given), the z-score was -0.672. CCCOc1cccc(-c2nn(-c3ccccc3)cc2/C=C(\C#N)C(=O)NCCCn2ccnc2)c1 gave a z-score of -0.485. Work on O=C(COc1ccccc1)NCc1nnc(SCC(=O)Nc2nccs2)n1-c1ccccc1 yielded a z-score of -0.247. With Cc1ccc(SCC(=O)NCCN2C(=O)CSC2=O)c(C)c1 the z-score was 0.898. Molecule CCc1nnc(NC(=O)C2CC(=O)N(c3ccc4c(c3)OCCO4)C2)s1 (stereo not given) has a z-score of -0.124. For CN(c1ccc(OCc2nnc(-c3ccccc3)o2)cc1)S(=O)(=O)c1ccccc1, the z-score was -0.0803. With CCOC(=O)c1sc2nc3c(cc2c1N)COC(C)(C)C3 the z-score was -0.191. For Cc1ccc(OCC(O)CN2CCN(Cc3ccc4c(c3)OCO4)CC2)c(C)c1 (stereo not given), the z-score was -1.56. CC1(C)CC(=O)C2=C(C1)Nc1cc3c(cc1C2c1ccc2c(c1)OCO2)OCO3 (stereo not given) showed a z-score of -0.639. Molecule O=C(N/N=C/c1ccc(N2CCOCC2)o1)c1cccc(F)c1 has a z-score of -0.000719. With C=CCNc1oc(-c2cccc3ccccc23)nc1C#N the z-score was 0.211. Work on O=C(c1ccccc1)c1ccc(OC(=O)N2CCOCC2)cc1 yielded a z-score of -1. O=C(Cn1c(=O)oc2cc(S(=O)(=O)N3CCc4ccccc43)ccc21)NC1CCCC1 was tested, and the z-score was -0.167. Molecule O=C(Cn1nc(Cc2cccnc2)c2ccccc2c1=O)NCc1ccc2c(c1)OCO2 has a z-score of -0.0578. With Cc1cc2c(cc1C)C(=O)NC(C)(C)C2 the z-score was active: 5.66. Molecule O=C(/C=C/c1ccc2c(c1)OCO2)c1ccco1 has a z-score of 0.02. With Cc1ccccc1NC1=C(C(=O)c2ccccc2)N(C)S(=O)(=O)c2ccccc21 the z-score was -0.213. Molecule Cn1c(=O)[nH]c(=O)c2c1nc(CN1CCN(c3ccccc3F)CC1)n2CCCc1ccccc1 has a z-score of -0.253. Molecule O=C(CSc1ccc(-c2nc3ccccc3[nH]2)cn1)Nc1ccc2c(c1)OCCO2 has a z-score of 0.323. Cc1ccsc1/C=C(\C#N)C(=O)NCc1ccco1 was tested, and the z-score was -0.0871. Molecule CCc1ccc2nc(N3C(=O)c4oc5ccccc5c(=O)c4C3c3ccc(OC)c(OC)c3)sc2c1 (stereo not given) has a z-score of -0.133. For O=C(c1ccc(F)cc1F)N1CCN(c2ncccn2)CC1, the z-score was -0.217. With COc1cccc(C(=O)Nc2ccc3c(c2)C(=O)N(CCC(=O)O)C3=O)c1 the z-score was -0.148. CCNC(=S)NNC(=O)c1cc(-c2ccc(OCC)cc2)nc2ccccc12 gave a z-score of 0.71. For Cc1ccc(-c2cc(C(=O)NN=C3CCCC3)c3ccccc3n2)cc1, the z-score was 0.044. Work on CCC(C)n1c(-c2cccs2)nc2nc3ccccc3nc21 (stereo not given) yielded a z-score of -0.664. With O=C(Nc1ccc(Cl)c(C(F)(F)F)c1)NC1CC2CCCC(C1)N2C1CC1 (stereo not given) the z-score was 0.511. Cc1cc(C(C)(C)C)ccc1OCCN1CCCC1 showed a z-score of 1.41. CC(C)C1C(C#N)=C(N)Oc2n[nH]c(-c3ccc4ccccc4c3)c21 (stereo not given) gave a z-score of -0.0843. For Cc1cccc(N2CCN(C(=S)NCc3ccco3)CC2)c1C, the z-score was -0.157. O=C(OCn1nnc2ccccc2c1=O)c1ccc2ncsc2c1 gave a z-score of 0.149. Work on O=C(Nc1cccc(Br)c1)c1cc2ccccc2o1 yielded a z-score of -0.636. For COc1ccc2oc(=O)c(-c3ccccc3C(=O)N3CCOCC3)cc2c1, the z-score was -0.104. Work on CCOC(=O)c1c(-c2ccc(C)o2)csc1NC(=O)CN1CCOCC1 yielded a z-score of -1.17. COc1c(F)c(F)c(C(=O)O)c(Nc2ccccc2C)c1F gave a z-score of -0.533. COc1ccc(C2NC(=S)NC3=C2CCc2cc(OC)ccc23)cc1 (stereo not given) gave a z-score of -0.223. Molecule O=C(O)c1ccccc1NC(=S)NC(NC(=O)c1ccccc1[N+](=O)[O-])C(Cl)(Cl)Cl (stereo not given) has a z-score of -0.103. Work on CCOc1ccc(NC(=O)CN2CCN(CC(=O)Nc3ccc(C(=O)OC)cc3)CC2)cc1 yielded a z-score of 0.201. For CN(C)CCCOc1ccc(C(C)(C)c2ccccc2)cc1, the z-score was active: 3.07. COc1cccc(CNc2ccc(S(N)(=O)=O)cc2)c1OC showed a z-score of 0.00283.

Reference: PubChem BioAssay AID488969 (Vanderbilt High Throughput Screening Facility, 2010)
